This test deals with NCI-H1944. The experiment in a line: normalised cell viability (NPI; 0 = phenylarsine oxide control, 1 = DMSO control) (fraction of DMSO control); NCI-H1944 is a non-small cell lung cancer line; higher = more viable cells (less compound toxicity). The conditions noted are these: 6 days.
Setting [1] is: glucocorticoid arm: hydrocortisone 2.75 uM co-treatment, compound 1 µM.
[2] abbreviates: glucocorticoid arm: hydrocortisone 2.75 uM co-treatment, compound 5 µM.
Setting [3] is: glucocorticoid arm: hydrocortisone 2.75 uM pre-treated 2 days and continued, compound 1 µM.
Setting [4] is: glucocorticoid arm: hydrocortisone 2.75 uM pre-treated 2 days and continued, compound 5 µM.
Setting [5] is: glucocorticoid arm: vehicle, compound 1 µM.
Setting [6] is: glucocorticoid arm: vehicle, compound 5 µM.

Structures can show the parent of a compound that is named as a salt. ± gives the standard deviation of the averaged measurements. The full ranking holds about 1,900 compounds; the median of “normalised cell viability (NPI; 0 = phenylarsine oxide control, 1 = DMSO control)” is about 1, and the lowest 2% start at about 0.039. Some of the results follow.
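Also: CTB read-out in 384-well plates, mean of triplicate wells, normalised per plate against 1 µM phenylarsine oxide and 0.1% DMSO, compounds added 24 h after seeding.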

Regarding `CCN(CC)CCNC(=O)c1c(C)[nH]c(/C=C2\C(=O)Nc3ccc(F)cc32)c1C` [Sunitinib Malate (Sutent)], the normalised cell viability is, setting by setting: under setting [1], 0.99 ± 0.0089; under setting [2], 0.8647 ± 0.0067; under setting [3], 1.003 ± 0.0058; under setting [4], 0.928 ± 0.012; under setting [5], 0.9927 ± 0.0059; under setting [6], 0.9927 ± 0.0031.

Regarding `CCN(CC)CCNC(=O)c1c(C)[nH]c(/C=C2\C(=O)Nc3ccc(F)cc32)c1C` [Sunitinib; Sunitinib Malate; Sunitinib (free base)], the normalised cell viability under setting [1] was found to be 0.9273 ± 0.0085; the normalised cell viability under setting [2] worked out at 0.586 ± 0.011; the normalised cell viability under setting [3] is 0.9643 ± 0.0045; the normalised cell viability under setting [4] was 0.76 ± 0.033; the normalised cell viability under setting [5] turned out to be 0.999 ± 0.01; the normalised cell viability under setting [6] came out at 0.703 ± 0.0078.

In the case of `CCN(CC)CCOC(=O)c1cc(Cl)c(N)cc1OC` [SDZ-205,557 hydrochloride], the normalised cell viability reads like this: under setting [1], 0.993 ± 0.0061; under setting [2], 1 ± 0.017; under setting [3], 1.02 ± 0.023; under setting [4], 0.993 ± 0.022; under setting [5], 1.002 ± 0.0076; under setting [6], 0.9977 ± 0.0021.

Turning to `NC/C=C/C(=O)O` [(E)-4-amino-2-butenoic acid], the normalised cell viability reads like this: under setting [1], 0.965 ± 0.014; under setting [2], 0.9853 ± 0.0025; under setting [3], 0.999 ± 0.019; under setting [4], 0.981 ± 0.011; under setting [5], 0.9743 ± 0.0067; under setting [6], 0.9727 ± 0.0081.

`CC(=O)N[C@@H](Cc1c[nH]c2ccccc12)C(=O)OCc1cc(C(F)(F)F)cc(C(F)(F)F)c1`: the normalised cell viability amounted to 0.99 ± 0.01 under setting [1]; 0.996 ± 0.013 under setting [2]; 0.989 ± 0.011 under setting [3]; 0.9775 ± 0.0064 under setting [4]; 0.97 ± 0.011 under setting [5]; 0.9747 ± 0.005 under setting [6].

Consider `Cn1cnc2c1c(=O)[nH]c(=O)n2C` [Theobromine], for which the normalised cell viability came out at 1.027 ± 0.0058 under setting [1]; 1.02 ± 0.021 under setting [2]; 1.02 ± 0.021 under setting [3]; 1.01 ± 0.015 under setting [4]; 1.007 ± 0.0058 under setting [5]; 1.013 ± 0.0058 under setting [6].

Turning to `N#C/C(=C\c1c[nH]c2ccccc12)C(=O)c1ccc(O)c(O)c1` [Tyrphostin AG 808], the normalised cell viability under setting [1] turned out to be 1.013 ± 0.0058; the normalised cell viability under setting [2] stood at 1.05 ± 0.021; the normalised cell viability under setting [3] stood at 0.872 ± 0.25; the normalised cell viability under setting [4] came to 1.023 ± 0.0058; the normalised cell viability under setting [5] was found to be 1.005 ± 0.0092; the normalised cell viability under setting [6] was found to be 1.005 ± 0.0081.

Turning to `CCN(CC)CCNC(=O)c1cc(Cl)c(N)cc1OC` [MetoclopraMide HCl], the normalised cell viability runs as follows: under setting [1], 1.037 ± 0.0058; under setting [2], 1.03 ± 0.025; under setting [3], 1.017 ± 0.0058; under setting [4], 1.017 ± 0.0058; under setting [5], 1.007 ± 0.0058; under setting [6], 1.013 ± 0.0058.

Regarding `CCN(CC)CCNC(=O)c1cc(Cl)c(N)cc1OC` [Metoclopramide hydrochloride], the normalised cell viability by setting is: under setting [1], 1.003 ± 0.0058; under setting [2], 0.996 ± 0.021; under setting [3], 1.01 ± 0.015; under setting [4], 1.02 ± 0.081; under setting [5], 1.003 ± 0.0058; under setting [6], 1.01.

As to `NCCCNCCCCNCCCN` [Spermine tetrahydrochloride], the normalised cell viability under setting [1] is 0.998 ± 0.0017; the normalised cell viability under setting [2] came out at 0.996 ± 0.021; the normalised cell viability under setting [3] amounted to 0.879 ± 0.21; the normalised cell viability under setting [4] was 0.98 ± 0.014; the normalised cell viability under setting [5] was 1.006 ± 0.0075; the normalised cell viability under setting [6] came to 0.486 ± 0.46.

With `CN(C)C/C=C(/c1ccc(Br)cc1)c1cccnc1` [Zimelidine dihydrochloride], the normalised cell viability stood at 1.01 ± 0.011 under setting [1]; 0.992 ± 0.016 under setting [2]; 1 ± 0.022 under setting [3]; 1.02 ± 0.022 under setting [4]; 1.017 ± 0.0058 under setting [5]; 1.01 ± 0.015 under setting [6].

For `C[S+]([O-])c1ccc(-c2nc(-c3ccc(F)cc3)c(-c3ccncc3)[nH]2)cc1` (centres undefined), the normalised cell viability runs as follows: under setting [1], 0.894 ± 0.017; under setting [2], 0.905 ± 0.027; under setting [3], 0.8577 ± 0.004; under setting [4], 0.868 ± 0.018; under setting [5], 1.003 ± 0.0058; under setting [6], 1.023 ± 0.0058.

As to `COc1cc2c(Oc3ccc(NC(=O)C4(C(=O)Nc5ccc(F)cc5)CC4)cc3F)ccnc2cc1OCCCN1CCOCC1`, the normalised cell viability under setting [1] is 0.877 ± 0.019; the normalised cell viability under setting [2] amounted to 0.369 ± 0.015; the normalised cell viability under setting [3] was 0.902 ± 0.026; the normalised cell viability under setting [4] was 0.464 ± 0.014; the normalised cell viability under setting [5] turned out to be 0.8107 ± 0.0061; the normalised cell viability under setting [6] was found to be 0.185 ± 0.0057.

With `COc1cc(N2CCC(N(C)C)CC2)ccc1Nc1ncc(Cl)c(Nc2ccccc2P(C)(C)=O)n1`, the normalised cell viability came to 0.424 ± 0.017 under setting [1]; 0.287 ± 0.046 under setting [2]; 0.478 ± 0.024 under setting [3]; 0.396 ± 0.04 under setting [4]; 0.696 ± 0.042 under setting [5]; 0.113 ± 0.019 under setting [6].

Values taken from the supplement of paper PMC8285479.
